Where “and” joins values, the source holds several entries; their conditions need not be identical. Identical values can stand only once. About 200 (0.44%) of roughly 45,000 compounds were called active. The inconclusive results got no clear call from the source; some entries with a clear call stand among them for comparison. Calls follow the shape of the dose curve; as a rule, active = well fitted activation curve with a large enough effect; inconclusive = small, poorly fitted or top-dose-only effect; inactive = no such curve, though single readings can be large or run the other way. A potency beside an inconclusive call is a rough fit, not a confirmed value.
Test: qHTS of TDP-43 Inhibitors: NCGC Sytravon Library Screen; also: nearly all actives have a fitted effect of over 55% in size; as to growth rescue (activation): 0% is about no effect
Details: yeast TDP-43 toxicity rescue, BacTiter-Glo growth, 24 h; growth rescue (activation): at 46.1 µM (top of the series)
Method in brief: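 TDP-43-expressing yeast, pregrown in raffinose, seeded at OD600 0.02 in galactose medium with compound for 24 hr at 30 deg C. Growth read by BacTiter-Glo luminescence, so rescue of toxicity appears as activation.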
Potency is read from the fitted curve at half-maximal effect; tags tell the direction and shape of the fitted curve.

| Compound | Potency | growth rescue (activation) |
| --- | --- | --- |
| C/C(=N\NC(=S)Nc1ccccc1C)c1cc2ccccc2o1 | inconclusive: 11.2 µM [activator, partial curve, poor fit] | – |
| COc1ccc(OCCSc2nnc(Cc3cccc4ccccc34)n2N)cc1 | inconclusive: 11.2 µM [activator, single point] | – |
| CC(C)CC1Nc2ccc(C(=O)NCc3ccc4c(c3)OCO4)cc2NC1=O (stereo not given) | inactive | – |
| CC(=O)NC(=S)Nc1ccc(N2CCOCC2)c(S(=O)(=O)Nc2cc(Cl)ccc2Cl)c1 | inconclusive: 15.8 µM [activator, single point] | – |
| COc1ccc(NC(=O)C2Cc3c(-c4ccccc4)ccnc3O2)cc1OC (stereo not given) | inconclusive: 14.1 µM [activator, single point] | – |
| O=C(Nc1cccc(C(F)(F)F)c1)c1csc([C@@H]2C[C@H](O)[C@@H](CO)O2)n1 | inactive | – |
| CC1(C(=O)Nc2ccc(Cl)c(Cl)c2)CCN1C(=O)C1CCCCC1 (stereo not given) | – | inconclusive: 105% [activator] |
| N#Cc1ccsc1NC(=O)CN1CCN(S(=O)(=O)c2cc(Cl)ccc2Cl)CC1 | inconclusive: 11.2 µM [activator, partial curve, poor fit] | – |
| Cc1cc(C)n(CCc2nc(-c3ccc(F)cc3)cs2)n1 | inconclusive: 12.6 µM [activator, single point] | – |
| CCOc1ncccc1C(=O)Nc1ccccc1N1CCOCC1 | inconclusive: 35.5 µM [activator, partial curve, poor fit] | – |
| COc1ccc(N2CCN(C(=O)c3c(Cl)cnn3C)CC2)cc1 | inconclusive: 10 µM [activator, partial curve, poor fit] | – |
| O=C(NCc1ccc(F)cc1)c1nc(-c2cccs2)no1 | inconclusive: 14.1 µM [activator, partial curve, poor fit] | – |
| CNc1cncc(-c2ccccc2NC(C)=O)n1 | inactive | – |
| C#CCOc1nc(Nc2cccc([N+](=O)[O-])c2)nc(OCC#C)n1 | inactive | – |
| O=C(O)Cc1csc(-c2cccc(Oc3ccccc3)c2)n1 | inconclusive: 22.4 µM [activator, single point] and inconclusive: 17.8 µM [activator, partial curve, poor fit] | – |
| CCOC(=O)C1(CCCc2ccccc2)CCN(C(=O)CCCn2cncn2)CC1 | inactive | – |
| Cc1cc(C)c(NC(=O)c2ccc(CNS(=O)(=O)c3cc(C(F)(F)F)ccc3Cl)cc2)c(C)c1 | inactive | – |
| O=C(COc1ccc(C(=O)c2ccccc2)cc1)NCc1ccc(F)cc1 | inconclusive: 22.4 µM [activator, single point] | – |
| COc1ccc(-c2cn[nH]c2-c2ccc(OC)cc2O)cc1 | inconclusive: 22.4 µM [activator, single point] | – |
| CCO/C=C1/C(=O)N(Cc2ccccc2)C(=O)c2ccccc21 | inconclusive: 12.6 µM [activator, single point] | – |
| O=C(Nc1ccccc1C(=O)NCCc1ccccc1)c1cnccn1 | inactive | – |
| CN(CC1COc2ccccc2O1)C(=S)Nc1ccccc1F (stereo not given) | active: 11.2 µM | – |
| O=C(NNC1=Nc2cccc3cccc1c23)c1ccc(Br)cc1 | inconclusive: 0.631 µM [activator, full curve, poor fit] | – |
| O=C(NCCSc1ccccc1)c1cncc(Br)c1 | inconclusive: 10 µM [activator, partial curve, poor fit] | – |

| Compound | Potency | growth rescue (activation) |
| --- | --- | --- |
| CC(C)Cc1ccc(C(C)C(=O)Nc2ccccc2O)cc1 (stereo not given) | inconclusive: 22.4 µM [activator, single point] | – |
| CCOC(=O)C(C)Sc1ncnc2c1nnn2-c1ccc(F)cc1 (stereo not given) | inconclusive: 31.6 µM [activator, single point] | – |
| CCc1nnc(NC(=O)CSc2nc(C)cs2)s1 | inactive | – |
| COc1cc(/C=C/C(=O)N(Cc2ccccc2)c2ccccn2)cc(OC)c1OC | inactive | – |
| O=C(COc1cccc(OC(F)F)c1)Nc1ccc(SC(F)F)cc1 | inconclusive: 7.94 µM [activator, partial curve, poor fit] | – |
| COc1ccc(CNC(=S)N/N=C(\C)c2ccc(OC)cc2)cc1 | inconclusive: 20 µM [activator, partial curve, poor fit] | – |
| CN(C)CCOC(=O)c1ccc2[nH]c3c(c2c1)CSCC3 | inconclusive: 15.8 µM [activator, single point] | – |
| O=C1COCCOCCOCCOCC(=O)NCCN1 | inactive | – |
| COc1ccc(-c2coc3c(C(=O)NCC4CCOCC4)cccc23)c(C)c1 | – | inconclusive: 68.8% [activator] |
| COc1ccc(Nc2nc(C)c(-c3ccccc3)s2)cc1 | inconclusive: 25.1 µM [activator, partial curve, poor fit] | – |
| CC(=O)Nc1ccc(Nc2ccc(S(=O)(=O)C(F)(F)F)cc2[N+](=O)[O-])cc1 | inconclusive: 25.1 µM [activator, single point] | – |
| N#CCN1C(=O)C(=O)N(Cc2cccc(C(F)(F)F)c2)C1=O | inconclusive: 35.5 µM [activator, single point] | – |
| CCCCNC(=O)C1(C)CCCCN1C(=O)c1cccc(OC(F)(F)F)c1 (stereo not given) | inactive | – |
| CC1COC(=O)C(NNc2ccc(Cl)c(Cl)c2)=N1 (stereo not given) | inconclusive: 1.78 µM [activator, partial curve, poor fit] | – |
| O=C1C(=O)N(c2ccc(O)cc2)C(c2ccccc2[N+](=O)[O-])/C1=C(\O)c1ccccc1 (stereo not given) | inconclusive: 22.4 µM [activator, partial curve, poor fit] | – |
| CC(C)(C)c1ccc(-n2nc(C#N)c(Cl)cc2=O)cc1 | inconclusive: 2.82 µM [activator, full curve, poor fit] | – |
| CCCOc1ccc(CNC(=O)c2cc3oc4ccccc4c3n2C)cc1 | inactive | – |
| COCCNC(=O)C1CCCN(C(=O)c2csc3ccccc23)CC1 (stereo not given) | inactive | – |
| CCCCc1ccc(NC(=O)CN(C)CC(=O)Nc2ccccc2Cl)cc1 | inconclusive: 25.1 µM [activator, single point] | – |
| Cc1ccc(SCC(=O)Nc2cc(S(=O)(=O)N3CCCCC3)ccc2C)cc1 | inconclusive: 35.5 µM [activator, partial curve, poor fit] | – |
| CCn1c(O)c(N=Nc2ccc(Cl)c(C(=O)O)c2)c2ccccc21 | inconclusive: 4.47 µM [activator, single point] | – |
| NC(=O)Cn1c(=O)n(CCCCCC(=O)NCc2ccccc2Cl)c(=O)c2sccc21 | inactive | – |
| O=C1c2cccc3cccc(c23)N1Cc1cccc(F)c1 | inconclusive: 15.8 µM [activator, partial curve, poor fit] | – |
| O=C(Nc1ccc(Cl)c(Cl)c1)N(CCCN1CCOCC1)Cc1cccnc1 | inconclusive: 35.5 µM [activator, single point] | – |

| Compound | Potency | growth rescue (activation) |
| --- | --- | --- |
| CCc1nn(-c2ccccc2)c(=S)c2ccccc12 | inconclusive: 11.2 µM [activator, single point] | – |
| COc1cc(C=O)ccc1OCCCCOc1ccccc1[N+](=O)[O-] | inconclusive: 25.1 µM [activator, partial curve, poor fit] | – |
| CNC(=S)N1N=C(c2ccc(OC)cc2)CC1c1ccc(Cl)cc1Cl (stereo not given) | inconclusive: 17.8 µM [activator, single point] | – |
| COc1ccc(CCNC(=O)c2ccc(-c3ccc([N+](=O)[O-])cc3Cl)o2)cc1OC | inconclusive: 35.5 µM [activator, single point] | – |
| CCC(C)/C(C)=N/NC(=O)c1ccccc1OCCOc1ccccc1 (stereo not given) | inactive | – |
| COc1cc2c(cc1OC)CN(c1ccc([N+](=O)[O-])cc1C#N)CC2 | inconclusive: 12.6 µM [activator, partial curve, poor fit] | – |
| COC(=O)c1c(NC(=O)COc2ccc(Cl)cc2C)sc2c1CCCCC2 | inactive | – |
| CNC(=O)NC(=O)C(C)OC(=O)CCCSc1nc2ccccc2s1 (stereo not given) | inconclusive: 20 µM [activator, single point] | – |
| Cc1ccccc1NC(=O)C1C2C=CC(C3CC23)C1C(=O)O (stereo not given) | inconclusive: 12.6 µM [activator, partial curve, poor fit] | – |
| COc1ccc(/C=C/C(=O)Nc2ccc(OC)nc2)cc1 | inconclusive: 15.8 µM [activator, single point] | – |
| C/C(=N/OCc1ccc(Br)cc1)c1ccccn1 | inconclusive: 14.1 µM [activator, partial curve, poor fit] | – |
| CCC(C)c1ccc(NC(=S)Nc2ccc(OC)c(OC)c2)cc1 (stereo not given) | inconclusive: 12.6 µM [activator, single point] | – |
| Cc1ccc(NC(=S)c2nc3ccccc3[nH]2)c(C)c1 | active: 10 µM | – |
| O=C(CN1CCCSc2ccccc21)N1CCN(S(=O)(=O)c2ccccc2)CC1 | inconclusive: 17.8 µM [activator, single point] | – |
| Cc1ccccc1OCC(=O)OCn1nnc2ccccc2c1=O | inactive | – |
| CN1CCN(/C=C2\SC(=S)NC2=O)CC1 | inactive | – |
| Cc1cc(F)ccc1-c1cc(C(=O)NC2CCCCC2)[nH]n1 | – | inconclusive: 61.6% [activator] |
| Cc1ccc(OCC(=O)O/N=C(\N)c2cccc([N+](=O)[O-])c2)cc1C | inactive | – |
| COc1cc(SC)ccc1C(=O)NC1CCCc2ccccc21 (stereo not given) | inconclusive: 15.8 µM [activator, single point] | – |
| CCN(Cc1ccccc1)C(=O)Cn1c(=O)oc2cc(S(=O)(=O)N3CCCCCC3)ccc21 | inactive | – |
| COc1ccc(-c2csc(C(C)(O)c3cccc(OC)c3)n2)cc1 (stereo not given) | – | inconclusive: 158% [activator] |
| S=C(NCCc1ccccc1)Nc1ccccc1Cl | inconclusive: 17.8 µM [activator, partial curve, poor fit] | – |
